Source: PubChem BioAssay AID1346428 (National Center for Advancing Translational Sciences (NCATS), 2018)
Several values for one entry are separate records, joined by “and”; a condition that tells them apart may be missing. Equal values may be shown once. In all, about 48,000 compounds went through this assay and about 1,200 (2.5%) were called active. Not shown: some 2% with an inconclusive outcome.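 How the source made its calls: active means activation of at least 60% and not above a set upper limit (about 1 call in 100 departs from these limits); inconclusive means activation of 40% to 60%, or above that upper limit; inactive means activation under 40%.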 The list shows a part of the results. Some structures have more than one record in an assay (separate samples or runs), and their calls can disagree.

target: Probable G-protein coupled receptor 32 (Homo sapiens) (UniProt O75388); test: qHTS for Agonists of Human Resolvin D1 Receptor DRV1; details: CHO-K1 GPR32 beta-arrestin PathHunter luminescence, 90 min; at 76.9 µM; stronger effect = higher value; zero percent set by DMSO-only wells; further: 0% is about no effect
In short: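 GPR32 activation in stably transfected CHO-K1 cells, detected as beta-arrestin recruitment by enzyme-fragment complementation. Compound exposure: 90 min, 37 °C.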

Sequence of UniProt O75388 (O75388 whole entry, looked up, the tested form may be a part): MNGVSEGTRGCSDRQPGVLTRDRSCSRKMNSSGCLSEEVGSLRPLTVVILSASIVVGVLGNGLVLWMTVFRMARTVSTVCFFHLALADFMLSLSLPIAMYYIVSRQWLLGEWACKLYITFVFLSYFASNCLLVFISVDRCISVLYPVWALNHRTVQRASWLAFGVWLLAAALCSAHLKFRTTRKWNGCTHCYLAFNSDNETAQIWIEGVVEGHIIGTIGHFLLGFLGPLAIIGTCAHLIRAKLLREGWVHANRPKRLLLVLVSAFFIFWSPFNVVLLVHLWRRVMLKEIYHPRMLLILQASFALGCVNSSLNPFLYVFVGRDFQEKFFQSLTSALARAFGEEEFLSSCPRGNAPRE

With `Cn1c(=O)n(C)c2cc(CNCCc3ccccc3)ccc21` as the compound, how does the activation read?
The activation was inactive: -9.23%.

Which activation does the source give for `O=C(Nc1ccc2c(c1)OCO2)c1cccn(Cc2ccc(F)cc2)c1=O` here?
Its activation is inactive: 24.3%.

How did the activation turn out when `CCOC(=O)CC(SP(=S)(OC)OC)C(=O)OCC` (configuration not stated) was run?
Its activation is inactive: -111% and inactive: -23.9%.

Which activation does the source give for `NCC(CC(=O)O)c1ccc(Cl)cc1` (configuration not stated) here?
The activation was inactive: -2.41% and inactive: -0.254%.

For `O=C1OC(c2ccc(O)c(S(=O)(=O)O)c2)(c2ccc(O)c(S(=O)(=O)O)c2)c2c(Br)c(Br)c(Br)c(Br)c21`, which activation is on record?
The activation was inactive: -5.77%.

Which activation does the source give for `CC(C)=C[C@@H]1[C@@H](C(=O)OCc2coc(Cc3ccccc3)c2)C1(C)C` here?
The activation was inactive: 23.7%.

With `CCC(CC)(CNC(=O)CCCO)c1cccc(OC)c1` as the compound, how does the activation read?
Its activation is inactive: -4.1%.

How did the activation turn out when `CCCN(CCC)CCc1c[nH]c2ccccc12` was run?
Its activation is inactive: -4.03%.

For `CN1CC[C@]23c4c5ccc(O)c4O[C@H]2[C@@H](O)C=C[C@H]3[C@H]1C5`, which activation is on record?
The activation was inactive: 11.9%.

Which activation does the source give for `O=[N+]([O-])c1cc([N+](=O)[O-])c2ccccc2c1` here?
Its activation is inactive: 34.8%.

For `C[Se]C[C@H](N)C(=O)O`, which activation is on record?
The activation was inactive: -13.9%.

How did the activation turn out when `NC(N)=Nc1ccc2[nH]c3c(c2c1)C[C@@]1(O)[C@H]2Cc4ccc(O)c5c4[C@@]1(CCN2CC1CC1)[C@H]3O5` was run?
The activation was inactive: -25.5%.

For `CCOC(=O)c1ncn2c1[C@@H]1CCCN1C(=O)c1cc(OC)ccc1-2`, which activation is on record?
The activation was inactive: -9.3%.

`O=c1c2ccccc2nc(/C=C\c2cccc(Br)c2)n1-c1ccc(O)cc1` was tested. Which activation did it give?
Its activation is inactive: -34.7%.

With `CCC1(C2=NCCN2)Cc2ccccc2O1` (configuration not stated) as the compound, how does the activation read?
The activation was inactive: 1.55% and inactive: 17%.

With `CCSc1nnc(NC(=O)c2cccn(Cc3ccc(Cl)cc3)c2=O)s1` as the compound, how does the activation read?
Its activation is inactive: 18.5%.

Which activation does the source give for `CC[C@@H](CO)NC(=O)[C@@H]1C=C2c3cccc4[nH]cc(c34)C[C@H]2N(C)C1` here?
Its activation is inactive: 16% and inactive: 5.56%.

How did the activation turn out when `CCOc1ccc(CN2C(=O)c3ccccc3Sc3ccc(C(=O)N4CCC5(CC4)OCCO5)cc32)cc1` was run?
The activation was inactive: -8.61%.

Which activation does the source give for `Cc1c(C(c2ccc(O)cc2)c2c(O)c3ccccc3oc2=O)c(=O)n(-c2ccccc2)n1C` (configuration not stated) here?
Its activation is inactive: -1.17%.

With `NC(=O)c1ccc(NC(=O)c2cccn(Cc3ccccc3)c2=O)cc1` as the compound, how does the activation read?
The activation was inactive: 0.404%.

How did the activation turn out when `CCC1(CCC(C)C)C(=O)NC(=O)NC1=O` was run?
Its activation is inactive: 4.95%.

`Cc1ccc(-n2c(/C=C/c3cccc(C(F)(F)F)c3)nc3ccccc3c2=O)cc1` was tested. Which activation did it give?
The activation was inactive: -7.23%.

`CC(=O)c1ccc(NC(=O)c2sc3nc4c(cc3c2N)N2CCC4CC2)cc1` was tested. Which activation did it give?
Its activation is inactive: 41%.

Which activation does the source give for `O=[N+]([O-])c1ccc(O[C@@H]2O[C@H](CO)[C@@H](O)[C@H](O)[C@H]2F)c([N+](=O)[O-])c1` here?
The activation was inactive: -6.77%.

For `O=C(O)c1nn(Cc2ccc(Cl)cc2Cl)c2ccccc12`, which activation is on record?
The activation was active: 64% and inactive: -2.99%.

How did the activation turn out when `Nc1ccccc1C(=O)OCC(O)CO` (configuration not stated) was run?
The activation was inactive: -5.39%.

Which activation does the source give for `CC(C)(C)c1cc(C=C(C#N)C#N)cc(C(C)(C)C)c1O` here?
Its activation is inactive: -20.8%.

Which activation does the source give for `O=C(O)C(Cl)Cl` here?
The activation was inactive: -25.9%.

For `Cc1ccc(-n2c(/C=C/c3ccccc3)nc3ccccc3c2=O)cc1C`, which activation is on record?
The activation was inactive: -12.2%.

For `C[C@@H]1C[C@@H]([C@H](O)CC2CC(=O)NC(=O)C2)C(=O)[C@@H](C)C1`, which activation is on record?
Its activation is inactive: -7.28%.

How did the activation turn out when `Cc1ccc2scc(N3CCN(C)CC3)c(=O)c2c1` was run?
The activation was inactive: -33%.

`C[C@H](N)C(=O)c1ccccc1` was tested. Which activation did it give?
Its activation is inactive: -47.9%.

With `COc1cc(C(O)CN)ccc1O` (configuration not stated) as the compound, how does the activation read?
Its activation is inactive: -3.69%.

For `CCOC(C(=O)OCCN(C)C)(c1ccccc1)c1ccccc1`, which activation is on record?
Its activation is inactive: -8.83%.

How did the activation turn out when `CN1[C@@H]2CC[C@H]1CC(OC(=O)c1cc(Cl)cc(Cl)c1)C2` (some centres not stated) was run?
Its activation is inactive: 1.94%.

Which activation does the source give for `O=c1[nH]oc2c1CCNC2` here?
Its activation is inactive: -18.6% and inactive: -3.96%.

Which activation does the source give for `Cc1cccc(CN2C(=O)CN=C(c3ccccc3Cl)c3cc(Cl)ccc32)c1` here?
Its activation is inactive: 12.5%.

With `Cc1ccc(C)c(CN2C(=O)c3ccccc3Sc3ccc(C(=O)N4CCC5(CC4)OCCO5)cc32)c1` as the compound, how does the activation read?
Its activation is inactive: -19.2%.

For `O=C(c1ccc2c(c1)N(Cc1c(F)cccc1Cl)C(=O)c1ccccc1S2)N1CCC2(CC1)OCCO2`, which activation is on record?
Its activation is inactive: -17.2%.

Which activation does the source give for `C[N+]1(C)CCc2cc3c(cc2[C@H]1[C@@H]1OC(=O)c2c1ccc1c2OCO1)OCO3` here?
The activation was inactive: 5.16%.

How did the activation turn out when `O=C(Nc1ccc(OC(F)(F)F)cc1)c1cccn(Cc2ccccc2Cl)c1=O` was run?
Its activation is inactive: -0.878%.

`CCn1c(CN2CCN(C)CC2)nc2ccccc21` was tested. Which activation did it give?
The activation was inactive: -1.14%.

For `NC(CCP(=O)(O)O)C(=O)O` (configuration not stated), which activation is on record?
Its activation is inactive: 10.7%.

For `CC(=O)C1CCOC1=O` (configuration not stated), which activation is on record?
The activation was inactive: -17.3%.

With `Cc1cccc(-n2c(CC3C(=O)Nc4ccc(C)cc43)nc3ccccc3c2=O)c1` (configuration not stated) as the compound, how does the activation read?
The activation was inactive: -28.4%.

With `NCC1(CC(=O)O)CCCCC1` as the compound, how does the activation read?
The activation was inactive: 7.94% and inactive: 5.77%.

With `COc1cccc(-n2c(/C=C/c3cccc(C)c3)nc3ccccc3c2=O)c1` as the compound, how does the activation read?
The activation was inactive: -5.71%.

Which activation does the source give for `CCC(=O)C(CC(C)N(C)C)(c1ccccc1)c1ccccc1` (configuration not stated) here?
The activation was inactive: 46.3%.

With `Cc1cccc(Cn2cccc(C(=O)Nc3nc4ccccc4s3)c2=O)c1` as the compound, how does the activation read?
The activation was inactive: 36.2%.

How did the activation turn out when `CCOC(=O)c1ccc(NC(=O)CSc2nc3c(cc2C#N)N2CCC3CC2)cc1` was run?
The activation was inactive: 13.5%.

`Nc1ccc(Cl)cc1N` was tested. Which activation did it give?
Its activation is inactive: -52.4%.

Which activation does the source give for `COC[C@H]1OC(=O)c2coc3c2[C@@]1(C)C1=C(C3=O)C2CCC(=O)[C@@]2(C)C[C@H]1OC(C)=O` (some centres not stated) here?
Its activation is inactive: -10.3%.

`O=C(CCCN1CCC2(CC1)C(=O)NCN2c1ccccc1)c1ccc(F)cc1` was tested. Which activation did it give?
The activation was inactive: -3.67% and inactive: -2.01%.

For `C[C@@H]1O[C@H](C[N+](C)(C)C)CS1`, which activation is on record?
The activation was inactive: 15.2%.

For `O=[N+]([O-])O[C@H]1CO[C@H]2[C@@H]1OC[C@H]2O[N+](=O)[O-]`, which activation is on record?
Its activation is inactive: -11.7%.

Which activation does the source give for `Cc1ccc(-n2c(/C=C/c3cccc4ccccc34)nc3ccccc3c2=O)cc1` here?
Its activation is inactive: -13.4%.

For `CC(C)Oc1cccnc1N(C)C1CCN(Cc2ccccc2)CC1`, which activation is on record?
The activation was inactive: -3.53%.
